{"source": "PubChem BioAssay AID894", "about": "(National Center for Advancing Translational Sciences (NCATS), 2007)", "note": "Screen size: about 150,000 compounds; about 6,500 (4.3%) were called active. Inconclusive results, whose numbers are uncertain, are shown with a selection of clear calls. Calls come from the whole dose curve; as a rule, active = well fitted inhibition curve with a large enough effect (not every such curve was filed as active); inconclusive = small, poorly fitted or top-dose-only effect, or another doubt; inactive = no such curve, though single readings can be large or run the other way. No potency is given beside an inconclusive call; the fits are too rough. % is set by controls: 0 for no effect and ±100 for the full control effect; potency is the fitted concentration of half-maximal effect; tags give direction and shape of the fitted curve."}
{"target": "15-hydroxyprostaglandin dehydrogenase [NAD(+)] (Homo sapiens) (UniProt P15428)", "sequence (P15428 whole entry, looked up)": "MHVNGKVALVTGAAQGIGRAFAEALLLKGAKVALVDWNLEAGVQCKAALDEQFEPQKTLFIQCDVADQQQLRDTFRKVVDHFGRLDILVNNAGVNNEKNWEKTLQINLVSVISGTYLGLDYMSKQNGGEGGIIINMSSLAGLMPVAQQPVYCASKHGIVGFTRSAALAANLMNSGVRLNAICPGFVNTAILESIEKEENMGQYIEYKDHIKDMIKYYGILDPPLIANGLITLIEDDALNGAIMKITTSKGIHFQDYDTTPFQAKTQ", "test": "qHTS Assay for Inhibitors of HPGD (15-Hydroxyprostaglandin Dehydrogenase)", "conditions": "purified HPGD, NADH fluorescence kinetic, PGE2 substrate; activity change, negative = inhibition: stronger effect = lower value", "summary_of_the_method": "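20 nM HPGD preincubated 15 min at room temperature with compound in 50 mM Tris-HCl pH 8, 0.01% Tween 20. Started with 1 mM NAD+ and 30 uM prostaglandin E2; NADH fluorescence (360/450 nm) read 5 times over 30-s intervals, last minus first.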"}
{"smiles": "CCn1cnc2sc(C)c(C)c2c1=O", "activity change, negative = inhibition": "inactive: -0.702%"}
{"smiles": "Cc1ccc(C)c(N2CCN(c3cnn(-c4nc5ccccc5s4)c(=O)c3Cl)CC2)c1", "Potency": "inconclusive [inhibitor, partial curve]"}
{"smiles": "CCC(CC)C(=O)NCCc1ccc(F)cc1", "activity change, negative = inhibition": "inactive: -9.58%"}
{"smiles": "O=[N+]([O-])c1cccc(NC(=S)NCCc2ccccc2)c1", "Potency": "active: 7.94 µM"}
{"smiles": "O=C(c1ccc(C(=O)N2CCOCC2)nc1)N1CCOCC1", "activity change, negative = inhibition": "inactive: -7.79%"}
{"smiles": "CCOC(=O)Nc1ccc(S(=O)(=O)N(C)C(C)C)cc1", "Potency": "inconclusive [inhibitor, partial curve, poor fit]"}
{"smiles": "CC1(C)NC(=O)N(CC(O)COc2cc3ccccc3cc2C(=O)N2CCCCC2)C1=O", "note": "(stereo not given)", "activity change, negative = inhibition": "inactive: -10.8%"}
{"smiles": "CCCCCC(=O)Nc1cc2[nH]c(=O)cc(COC)c2cc1C", "Potency": "inconclusive [inhibitor, partial curve]"}
{"smiles": "Cc1ccc(O)c(C(=O)c2cnn(-c3ccccc3)c2)c1", "Potency": "active: 3.55 µM"}
{"smiles": "CCOc1cccc(-c2cc(C(=O)N/N=C/c3ccc(OC)c(CN4CCOCC4)c3)c3ccccc3n2)c1", "Potency": "inconclusive [inhibitor, partial curve]"}
{"smiles": "COc1ccc(/C=C/C(=O)Nc2cc(C(F)(F)F)ccc2Cl)cc1OC", "Potency": "inconclusive [inhibitor, single point]"}
{"smiles": "Clc1ccccc1-c1nn2c(-c3ccncc3)nnc2s1", "Potency": "active: 11.2 µM"}
{"smiles": "O=C(NCCc1csc(-c2ccccc2)n1)c1ccc(Br)o1", "Potency": "inconclusive [inhibitor, partial curve, poor fit]"}
{"smiles": "CC(C)Sc1nc(NCc2ccco2)c2c3c(sc2n1)COC(C)(C)C3", "Potency": "inconclusive [inhibitor, partial curve]"}
{"smiles": "COc1ccc(-c2cc(C(=O)N(C)Cc3ccccc3)no2)cc1OC", "Potency": "inconclusive [inhibitor, partial curve]"}
{"smiles": "CCCCn1nc2cc(C(=O)NCC34CC5CC(CC(C5)C3)C4)ccc2c1OC", "Potency": "inconclusive [inhibitor, partial curve]"}
{"smiles": "CC(C)Cn1cnc2c(=O)oc3ccccc3c21", "activity change, negative = inhibition": "inactive: -22.5%"}
{"smiles": "CCC(=O)Nc1ccc2oc(-c3cccc(C)c3)nc2c1", "Potency": "inconclusive [inhibitor, partial curve]"}
{"smiles": "CSc1nc2ccc(NS(=O)(=O)c3ccccc3F)cc2s1", "Potency": "active: 25.1 µM"}
{"smiles": "CCOC(=O)c1c(OCC)[nH]c2c1cc(O)c1ccccc12", "Potency": "inconclusive [inhibitor, partial curve]"}
